Source: PubChem BioAssay AID894 (National Center for Advancing Translational Sciences (NCATS), 2007)
Among all 150,000 compounds or so, about 6,500 (4.3%) were called active. Inconclusive means that the source gave no clear call. Such entries were picked first, then a sample of the others. Calls follow the shape of the dose curve; as a rule, active = well fitted inhibition curve with a large enough effect (not every such curve was filed as active); inconclusive = small, poorly fitted or top-dose-only effect, or another doubt; inactive = no such curve, though single readings can be large or run the other way. No potency is given beside an inconclusive call; the fits are too rough.

Target: 15-hydroxyprostaglandin dehydrogenase [NAD(+)] (Homo sapiens) (UniProt P15428)
Assay: qHTS Assay for Inhibitors of HPGD (15-Hydroxyprostaglandin Dehydrogenase)
Conditions: purified HPGD, NADH fluorescence kinetic, PGE2 substrate; activity change, negative = inhibition: hits give low values
Outline: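 NADH formation kinetics: reaction with 30 uM PGE2 and 1 mM NAD+ (final), 20 nM enzyme, Tris-HCl pH 8 with Tween 20, after 15 min compound preincubation at room temperature. Fluorescence change, last versus first of five reads.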
% is scaled to controls: 0 for no effect and ±100 for the full control effect; potency is read from the fitted curve at half-maximal effect; tags tell the direction and shape of the fitted curve.

Sequence of UniProt P15428 (P15428 whole entry, looked up): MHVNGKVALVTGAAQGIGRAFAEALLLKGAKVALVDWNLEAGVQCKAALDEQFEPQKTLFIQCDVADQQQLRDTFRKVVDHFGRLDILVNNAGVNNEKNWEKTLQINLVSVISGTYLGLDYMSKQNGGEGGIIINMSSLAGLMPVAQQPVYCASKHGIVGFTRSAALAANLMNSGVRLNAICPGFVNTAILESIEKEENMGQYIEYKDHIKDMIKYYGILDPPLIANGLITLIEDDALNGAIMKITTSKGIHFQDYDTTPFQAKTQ

| SMILES | activity change, negative = inhibition | Potency |
| --- | --- | --- |
| COCC(=O)N1CCC2(CC1)CCN(C(c1ccccc1)c1ccccc1)CC2 | inactive: -4.53% | – |
| Cc1oc2c(CN3CCOCC3)c(O)ccc2c(=O)c1-c1ccc(Br)cc1 | – | inconclusive [inhibitor, partial curve] |
| COc1cc(C=O)ccc1OCCCOc1ccccc1[N+](=O)[O-] | – | active: 20 µM |
| Cc1ccc(CNC(=O)CN(Cc2cccs2)C(=O)C2(C)CC(=O)N=C3C=CC=CN32)cc1 (stereo unspecified) | – | inconclusive [inhibitor, partial curve] |
| O=C(c1csc2ccccc12)N1CCCCCC1 | – | active: 0.0126 µM |
| CC1CC(C)CN(C(=S)Nc2ccc3nc4n(c(=O)c3c2)CCCCC4)C1 (stereo unspecified) | – | inconclusive [inhibitor, partial curve] |
| COC(=O)c1[nH]c2cccc(Cl)c2c1NC(=O)CN1CCN(CCO)CC1 | – | inconclusive [inhibitor, partial curve] |
| COc1ccc(NC(=O)CNS(=O)(=O)c2ccc(Cl)cc2)cc1OC | inactive: -1.78% | – |
| Cc1cc(C)n(/N=C/c2cccc([N+](=O)[O-])c2)c(=O)c1 | – | inconclusive [inhibitor, partial curve] |
| O=C(O)c1ccc(COc2ccc3ccccc3c2/C=C2/NC(=O)N(c3ccccc3)C2=O)cc1 | – | inconclusive [inhibitor, partial curve] |
| O=C1c2ccccc2S(=O)(=O)N1CC1CC(c2ccccc2)=NO1 (stereo unspecified) | inactive: -15.5% | – |
| CC1CCc2c(C(=O)NCC3CCCO3)csc2C1 (stereo unspecified) | – | active: 7.94 µM |
| O=C(Nc1nc(-c2cc3ccccc3oc2=O)cs1)c1ccc(Br)o1 | – | inconclusive [inhibitor, partial curve] |
| Cc1nc2cc(C(=O)N3CCc4ccccc43)ccc2n1-c1ccc(F)c(F)c1 | – | active: 14.1 µM |
| CC1CCN(c2c(NCc3ccc(C(=O)NCc4ccco4)cc3)c(=O)c2=O)CC1 | – | active: 11.2 µM |
| CNCc1ccccc1Sc1ccc(OC)c(OC)c1 | inactive: 4.21% | – |
| Cc1ccc(C)c(NC(=O)CSc2ncnc3nc[nH]c23)c1 | – | inconclusive [inhibitor, single point] |
| CC1CCc2c(C(=O)NCCN3CCOCC3)csc2C1 (stereo unspecified) | – | inconclusive [inhibitor, single point] |
| CCn1c(C)cs/c1=N\C(=S)Nc1ccccc1C | inactive: -13.3% | – |
| CCOc1cc(C2/C(=C(\O)c3cc(C)ccc3C)C(=O)C(=O)N2CCN(C)C)ccc1O (stereo unspecified) | inactive: -7% | – |
| N#Cc1cnn2cc(-c3ncc(C(F)(F)F)cc3Cl)cnc12 | inactive: -24.6% | – |
